Among all 340,000 compounds or so, about 3,300 (0.97%) were called active. Inconclusive results, whose numbers are uncertain, are shown with a selection of clear calls.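 Rule for the calls: active = mean activation above about 17%, with every replicate also reaching it (limit read from the data, passing the limit was not always enough); inconclusive = only one of the two conditions met; inactive = the rest.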
These molecules were tested against Protein FosB (Mus musculus) (UniProt P13346) (assay: enhancers of mouse delta FosB DNA binding – biochemical, fluorescence polarization, TAMRA-CDK5 oligo, single point, primary screen (AID 493131;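 note: fluorescence polarization rise as delta FosB binds a TAMRA Cdk5 AP-1 oligo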)). Conditions: purified delta FosB, at 25 µM, stronger effect = higher value, percent of positive-control signal above neutral wells.
Chain of UniProt P13346 (P13346 whole entry, looked up): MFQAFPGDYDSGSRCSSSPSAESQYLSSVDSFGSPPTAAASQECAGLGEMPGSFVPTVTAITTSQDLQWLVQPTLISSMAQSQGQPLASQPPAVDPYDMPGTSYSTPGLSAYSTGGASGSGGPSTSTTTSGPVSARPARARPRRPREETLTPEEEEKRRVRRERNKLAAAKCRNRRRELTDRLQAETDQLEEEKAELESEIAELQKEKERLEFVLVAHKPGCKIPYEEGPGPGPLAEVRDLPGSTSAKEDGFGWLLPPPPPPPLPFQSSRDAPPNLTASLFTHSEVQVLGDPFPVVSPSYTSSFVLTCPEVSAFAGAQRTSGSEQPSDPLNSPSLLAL

Structure (SMILES)	activation
Cc1c(C(=O)c2ccc(Cl)c(Cl)c2)cnc2cc3c(cc12)OCO3	inactive: -13.6%
COc1ccc(C2=NN(C(C)=O)C(c3cccs3)C2)cc1OC (stereo unspecified)	inactive: 2.02%
NC(=O)c1nsc(C(=O)N(c2cccc(F)c2)C(C(=O)NC2CCCC2)c2ccc(O)cc2)c1N (stereo unspecified)	inconclusive: 21.3%
COc1ccc(S(=O)(=O)Nc2ccc(Cc3ccncc3)cc2)cc1OC	inactive: -4.83%
O=C(NC(=O)c1ccccc1Cl)C(=O)Nc1ccc(Cl)cc1	inconclusive: 19%
O=C(CC1C(=O)NCCN1Cc1c(F)cccc1Cl)NCc1ccccc1 (stereo unspecified)	inactive: -11.9%
CCOc1cccc(/C=N/NC(=O)c2ccc3c(c2)OCCO3)c1O	inactive: 1.01%
O=C(C[n+]1ccc(CCSc2ccc(F)cc2)cc1)c1ccccc1	active: 85.3%
O=C(Nc1nnc(S(=O)(=O)N2CCOCC2)s1)c1ccc(Cl)cc1	inactive: -3.76%
COc1ccc(CN2CCC(C(=O)Nc3ccc(Oc4cccnc4)cc3)CC2)c(C)c1C	inconclusive: 16.4%
CNC(=O)c1ccc(-c2ccc(Cl)c(Cl)c2)s1	active: 21.3%
O=C(Nc1ccc(Cl)cc1)c1nc[nH]c1C(=O)NCCN(CCNC(=O)c1[nH]cnc1C(=O)Nc1ccc(Cl)cc1)CCNC(=O)c1[nH]cnc1C(=O)Nc1ccc(Cl)cc1	inconclusive: 60.2%
O=C(Nc1ccc(S(=O)(=O)N2CCCCC2)cc1)c1ccc(CN2CCc3ccccc3C2)cc1	inconclusive: 20.4%
COc1ccccc1/C=C\C(=O)NCC(=O)N/N=C/c1cccc(OC)c1O	active: 29.7%
O=C(Nc1ccc2oc(-c3ccncc3)nc2c1)c1c(F)c(F)c(F)c(F)c1F	inactive: -3.46%
O=C(CSc1nnnn1-c1ccc(Cl)cc1)NC(=O)Nc1ccc2c(c1)OCCO2	active: 21.2%
CC1CC(C)CN(Cc2nc(N)nc(Nc3ccc4ccccc4c3)n2)C1 (stereo unspecified)	inconclusive: 16.5%
COc1ccc(Cl)cc1NC(=O)c1nnn(CC(=O)Nc2ccc(C)c(C)c2)c1N	active: 125%
O=C(CN1C(=O)NC(Cc2c[nH]c3ccccc23)C1=O)Nc1ccccc1Br (stereo unspecified)	inconclusive: 18.1%
CCC(=O)c1cn(CC(=O)Nc2c(C)cccc2C)c2ccccc12	inconclusive: 19.8%
CCOc1ccc(NC(=O)COc2ccccc2C(=O)NCc2ccccc2)cc1	inconclusive: 18%
Cc1ccc(/C=C2/Sc3ccc(C(=O)NCc4ccccn4)cc3NC2=O)cc1	inconclusive: 16.3%

Structure (SMILES)	activation
CCNc1ccc(C(=O)OCC(=O)NCc2ccccc2Cl)cc1[N+](=O)[O-]	inconclusive: 24.3%
CCN(CC)CCCN(Cc1cc2cc3c(cc2[nH]c1=O)OCO3)C(=S)NCCCN(C)C	inconclusive: 16.9%
COc1cc(/C=C2\SC(=S)N(Nc3ccccc3)C2=O)ccc1O	inconclusive: 16.6%
Cc1ccc2nc(SC(C(=O)Nc3ccc(F)cc3)c3ccccc3)[nH]c2c1 (stereo unspecified)	inconclusive: 18.2%
COc1ccc(Nc2nc(NCC3CCCO3)c3ccccc3n2)c(OC)c1 (stereo unspecified)	inconclusive: 18.1%
COC(=O)c1cccc(N(C(=O)c2cnccn2)C(C(=O)NC2CCCCC2)c2cn(C)nc2C)c1 (stereo unspecified)	inactive: -2.16%
CCOC(=O)N1CCc2c(sc(NC(=O)C3COc4ccccc4O3)c2C(N)=O)C1 (stereo unspecified)	inconclusive: 16.8%
CS(=O)(=O)N(Cc1ccc(Cl)cc1)c1ccc(C(=O)N/N=C/c2cc3ccccc3nc2Cl)cc1	active: 40.5%
Nc1ccc2c(c1)Cc1cc(N)c(Br)cc1-2	inactive: -6.93%
O=C(c1ccccc1OCc1ccccc1Br)N1CCN(c2ncccn2)CC1	inactive: -8.13%
CN(C)CCN(C(=O)c1ccc2c(c1)CCCC2)c1nc2cc3c(cc2s1)OCCO3	inconclusive: 23.1%
Cc1ccc(C)c(Nc2nn3c(=O)c4ccc(C(=O)NCc5cccnc5)cc4nc3s2)c1	active: 98.7%
Cc1oc2cc3oc(=O)c(CCC(=O)N4C[C@H]5C[C@@H](C4)c4cccc(=O)n4C5)c(C)c3cc2c1C	inactive: -1.61%
O=C(N/N=C1\CC2CC=CC12)c1ccccc1Cl (stereo unspecified)	inactive: -3.88%
CCOC(=O)/C=C/C(=O)Nc1ccc(S(=O)(=O)Nc2c(C)cc(C)cc2C)cc1	active: 19.9%
OC(CN1C2=NCCCN2c2ccccc21)c1ccc2c(c1)OCO2 (stereo unspecified)	inactive: -2.98%
COc1cc(/C=C/C(=O)Nc2ccc3nc4n(c(=O)c3c2)CCCC4)cc(OC)c1OC	inconclusive: 20.9%
Cc1cc(C)c(NC(=O)Cn2cnc3c(oc4ccccc43)c2=O)c(C)c1	active: 52.1%
C(=N\Nc1ccc2ccccc2n1)/c1ccc2c(c1)OCO2	inconclusive: 19.3%
CCOc1cc(/C=N/Nc2nc3ccccc3[nH]2)cc(Br)c1OCC(=O)N(C)C	active: 22.2%
N#CC1(c2ccc(NC(=O)c3ccccc3F)cc2)CCCC1	inactive: -10.6%
CCOc1ccc(S(=O)(=O)N(C)c2ccc(OCC(=O)N3c4ccc(C)cc4C4CN(C)CCC43)cc2)cc1 (stereo unspecified)	active: 33.6%

Structure (SMILES)	activation
O=C(CC1Sc2ccccc2NC1=O)NNc1ccc(Cl)cc1Cl (stereo unspecified)	inconclusive: 21.9%
Cn1c(/C(C#N)=C/c2ccc(O)cc2)nc2ccccc21	inactive: -1.9%
Cc1ccc(NC(=O)Cn2cc(C(=O)C3CC3)c3ccccc32)c(C)c1	inactive: -6.48%
CN1/C(=C\C(=O)Nc2cccc(Cl)c2)C(C)(C)c2ccccc21	inconclusive: 20.9%
Cc1ccccc1NC(=O)CSc1nc2ncc(Cl)cc2[nH]1	inconclusive: 17.3%
Cc1cc(C(=O)COc2ccccc2C(N)=O)c(C)n1C1CC1	inactive: -5.18%
COc1cccc(NC(=O)c2ccc(NCCCN3CCC(C)CC3)c([N+](=O)[O-])c2)c1	inconclusive: 17.4%
Cc1nc(-c2cc(C#N)c(Sc3ccc(Cl)cc3Cl)nc2C)cs1	inconclusive: 19.6%
CC(C)n1c(SCC(=O)NC2CCCCC2)nnc1-c1ccco1	inactive: -3.55%
COc1ccc(C2(c3ccc(OC)cc3)NC(=O)N(CC(=O)NCC(C)c3ccccc3)C2=O)cc1 (stereo unspecified)	inactive: -15.7%
Cc1ccc2cc3c(N)c(C(=O)Nc4c(C)[nH]c(=O)[nH]c4=O)sc3nc2c1	inconclusive: 22.6%
CC(C)c1c(C(=O)N/N=C/c2ccc(OCc3ccc(F)cc3)cc2)nnn1-c1nonc1N	inconclusive: 29.3%
Cc1cccc(NC(=S)N/N=C/c2cccc([N+](=O)[O-])c2)c1	inactive: 8.92%
CCCn1c(/C=N/Nc2nc3ccccc3[nH]2)nc2ccccc21	inconclusive: 22.3%
O=C(COc1ccc2c(-c3ccccc3)cc(=O)oc2c1)Nc1ccc(CN2CCOCC2)cc1	active: 27.1%
Cc1cccc(C(=O)Nc2nc(C)c(C(=O)Nc3ccc4c(c3)CCC4)s2)c1	inconclusive: 16.7%
Oc1ccc2c(c1)oc1cc(O)ccc12	inactive: -1.4%
O=C(CN1C(=O)/C(=C\c2ccccc2F)SC1=S)Nc1nc2ccccc2s1	inconclusive: 20%
CCOc1ccc(/C=N/NC(=O)CC(=O)Nc2ccc(Cl)c(Cl)c2)cc1	inconclusive: 19.2%
CN(C)CCNC(=O)c1cccc2nc3cccc(F)c3nc12	active: 33.5%
CN(C)CCOc1ccc(-c2c(-c3ccsc3)sc3ccccc23)cc1	inconclusive: 26%
COc1ccc(-n2nc(C(=O)NCC(=O)N3CCC(C(N)=O)CC3)c3ccccc3c2=O)cc1	inactive: -8.98%

Structure (SMILES)	activation
Cc1ccc(NC(=O)c2cc(NC(=O)c3ccco3)ccc2N2CCOCC2)cc1Cl	inconclusive: 17.9%
COc1ccc(NC(=O)C(=O)NNC(=O)C(C)Oc2ccc(Cl)cc2Cl)cc1 (stereo unspecified)	inconclusive: 16.7%
CN1C(=O)/C(=C\c2ccccc2F)Sc2ccc(C(=O)NC3CCN(Cc4ccccc4)CC3)cc21	inconclusive: 21.6%
Cc1cc(-c2nn(-c3ccccc3F)cc2CNCCc2cnc[nH]2)c(C)s1	inconclusive: 17.7%
O=C1N/C(=C/c2cccs2)C(=O)N1Cc1ccc(F)cc1	inconclusive: 16.8%
C=CCOc1ccc(/C=C2\SC(=S)N(NS(=O)(=O)c3ccc(C)cc3)C2=O)cc1	inactive: -15.7%
CN(C)C(CNC(=O)c1ccc(C(=O)c2ccccc2)cc1)c1ccccc1 (stereo unspecified)	inactive: -0.811%
Cc1ccc(S(=O)(=O)Nc2ccccc2CNc2ccccn2)cc1	inactive: -8.54%
Cc1ccc2nc(-c3ccc(NC(=O)CSc4ccccc4)cc3)[nH]c2c1	active: 25.4%
Cc1cc2oc3ccc(NCCC4CCCN4C)cc3c(=O)c2cc1C (stereo unspecified)	inconclusive: 16.3%
CCN1CCc2c(sc(NC(=O)Nc3ccc(Cl)c(Cl)c3)c2C(N)=O)C1	active: 56.4%
O=C(/C=C/c1cc2c(cc1Br)OCO2)NCc1ccc(F)cc1	active: 24.7%
Fc1ccc(CNc2nc3ccccc3n3cnnc23)cc1	inconclusive: 17.5%
Cc1ccc(OCc2occc2C(=O)O)cc1	inactive: 6.99%
COc1cccc(-c2nc(N3CCN(C)CC3)c3ccccc3n2)c1O	inconclusive: 20.6%
COc1cc(/C=C(\C#N)c2ccccn2)ccc1OCC(=O)Nc1c(Cl)cccc1Cl	inconclusive: 17.1%
CCc1ccc(NC(=O)COc2ccc(Br)cn2)cc1	inconclusive: 16.3%
Cc1sc2nc(SCCN(C)C)n(-c3ccccc3)c(=O)c2c1-c1ccc(F)cc1	active: 22.4%
Cc1cc(N2CCCC2)ccc1NC(=O)COc1ccc(Cl)cc1	inconclusive: 16.6%
Cc1ccc2nc(N(CCCN(C)C)C(=O)CN3C(=O)c4ccccc4C3=O)sc2c1	inconclusive: 16.4%

Source: PubChem BioAssay AID493131 (Broad Institute, 2011)
